About 14,000 (4.5%) of roughly 310,000 compounds showed an effect of 50% or more. Effects have a minus sign here. Some of the results follow.
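Further: peak tail current of the secondary pulse compared with the same well before compound.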

The target of this experiment is human ether-à-go-go-related gene (hERG) potassium channel (human, UniProt Q12809). In words: primary screen, population patch clamp on CHO cells stably expressing hERG.
human ether-à-go-go-related gene (hERG) potassium channel, sequence (Q12809 whole entry, looked up): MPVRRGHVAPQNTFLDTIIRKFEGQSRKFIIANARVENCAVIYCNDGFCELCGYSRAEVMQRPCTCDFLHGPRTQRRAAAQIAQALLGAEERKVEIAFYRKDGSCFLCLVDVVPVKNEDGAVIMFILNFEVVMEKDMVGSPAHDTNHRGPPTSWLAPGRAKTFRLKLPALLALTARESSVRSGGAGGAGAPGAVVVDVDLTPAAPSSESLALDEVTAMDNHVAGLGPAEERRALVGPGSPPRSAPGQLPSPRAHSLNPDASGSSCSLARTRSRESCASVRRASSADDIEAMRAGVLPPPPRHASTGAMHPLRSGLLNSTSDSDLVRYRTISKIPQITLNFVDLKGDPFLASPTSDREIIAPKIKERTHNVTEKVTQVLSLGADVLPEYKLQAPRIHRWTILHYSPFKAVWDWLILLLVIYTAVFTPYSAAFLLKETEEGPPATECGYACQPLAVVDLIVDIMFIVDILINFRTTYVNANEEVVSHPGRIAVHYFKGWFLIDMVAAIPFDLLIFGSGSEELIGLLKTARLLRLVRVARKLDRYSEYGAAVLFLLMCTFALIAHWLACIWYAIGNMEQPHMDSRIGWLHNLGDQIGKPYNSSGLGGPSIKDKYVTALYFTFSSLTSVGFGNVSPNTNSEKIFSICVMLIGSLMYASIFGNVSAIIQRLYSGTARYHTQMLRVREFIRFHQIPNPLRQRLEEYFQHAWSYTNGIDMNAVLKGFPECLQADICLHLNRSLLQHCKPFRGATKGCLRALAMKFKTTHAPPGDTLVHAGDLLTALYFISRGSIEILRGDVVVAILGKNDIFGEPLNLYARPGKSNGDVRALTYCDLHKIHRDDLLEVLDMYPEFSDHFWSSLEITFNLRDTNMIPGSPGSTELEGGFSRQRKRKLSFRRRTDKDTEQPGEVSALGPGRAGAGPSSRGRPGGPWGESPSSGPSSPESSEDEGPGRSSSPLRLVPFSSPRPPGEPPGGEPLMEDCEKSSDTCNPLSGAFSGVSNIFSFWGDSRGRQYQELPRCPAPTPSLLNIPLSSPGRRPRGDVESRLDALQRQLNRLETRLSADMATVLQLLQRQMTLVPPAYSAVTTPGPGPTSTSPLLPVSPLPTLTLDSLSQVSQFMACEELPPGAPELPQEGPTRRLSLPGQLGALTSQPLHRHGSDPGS
As to `CN(C)CCN(Cc1ccco1)S(=O)(=O)c1ccc(-c2ccc(=O)[nH]n2)s1`, the “hERG current change (%, negative = inhibition) at 10uM” value is -64.4%. Next, `CC1(C)C(=O)Nc2ccccc2N1C(=O)CSc1nc(-c2ccccc2)cs1`: 3.65%. With `Cc1cc(OCc2nn[nH]n2)c2c(-c3ccccc3)cc(=O)oc2c1`, the “hERG current change (%, negative = inhibition) at 10uM” value is on record as -6.11%. Take `CCc1ccc(N2C(=O)/C(=C/c3cccs3)N(CC(=O)OC)C2=S)cc1`: the “hERG current change (%, negative = inhibition) at 10uM” value turned out to be 0.511%. Next, `Cn1c(SCC(=O)NC(=O)NCc2ccco2)nnc1-c1ccccc1`: 3.4%; `C/C(=N\NC(=S)NCc1ccccc1)c1ccccc1F`: 9.46%. Regarding `COc1cc(NC(=O)c2cccc(COCC(F)(F)C(F)F)c2)cc(OC)c1OC`, the “hERG current change (%, negative = inhibition) at 10uM” value is -18.5%. Then `CN(C(=O)C1CCOC1)c1nnc(-c2ccncc2)s1` (centres unmarked), with 5.62%. Consider `Cc1ccc(/C=N/NC(=O)C(=O)N/N=C/c2ccc(C)o2)o1`, for which the “hERG current change (%, negative = inhibition) at 10uM” value came to 1.84%. Then `CCC(C)c1ccccc1N1CC(C(=O)N2CCN(C(=O)c3ccco3)CC2)CC1=O` (centres unmarked), with -12.6%; and `Cc1ccc(CN2C3=NC(=O)CN3c3ccccc32)cc1`, with -5.41%. On to `Cc1ccc(-c2nc(CN(Cc3cnn(C)c3)C(C)C)c(C)o2)o1`, for which the “hERG current change (%, negative = inhibition) at 10uM” value is recorded as -21.5%.

Consider `CCOC(=O)C(Cc1c(F)cccc1Cl)c1ccnc2nc(N)nn12` (centres unmarked), for which the “hERG current change (%, negative = inhibition) at 10uM” value came out at 0.868%.

As for `Brc1ccc(-c2cn3cccnc3n2)cc1`, the “hERG current change (%, negative = inhibition) at 10uM” value is 6.71%. Take `Cc1[nH]c2ccccc2c1C(=O)CN1CC(C)OC(C)C1` (centres unmarked): the “hERG current change (%, negative = inhibition) at 10uM” value was determined as 13.4%. Next, `Brc1ccc(N=Cc2ccccn2)cc1`: -0.925%; `C/C(=N/OC(=O)c1ccc(F)cc1)c1ccc(C)cc1`: 12.3%; `O=C(CNS(=O)(=O)c1ccccc1Br)OCC(=O)N1CCc2ccccc21`: -9.13%.

Consider `COC(=O)c1ccccc1NC(=O)CSc1ccccn1`, for which the “hERG current change (%, negative = inhibition) at 10uM” value is reported as -7.67%. Next, `CCc1ccc2nc(Nc3ncc(C(C)=O)c(C)n3)nc(C)c2c1`: 8.74%; `CCc1ccc(/C(C)=N/NC(=O)CNC(=O)/C=C/c2ccco2)cc1`: 5.75%; `CCCCNC(=O)c1onc(CSc2cc(C)cc(C)c2)c1C(=O)O`: 7.84%. Consider `O=C(Nc1ccc(-c2noc(CCc3ccccc3)n2)cc1)c1cccnc1`, for which the “hERG current change (%, negative = inhibition) at 10uM” value is reported as -8.2%. Then `CC1=C(C#N)CCC(=O)N1Cc1ccc(C)cc1`, with 6.81%; and `CC(C)(C)NC(=O)CN(C(=O)C(=O)Nc1ccc2c(c1)OCCO2)C(C)(C)C`, with -3.18%. Then `Cc1nc(Cl)sc1C(=O)Nc1ccc(C(C)(C)C)cc1`, with 3.09%; and `Nc1c(N(Cc2ccco2)C(=O)COc2ccccc2F)c(=O)[nH]c(=O)n1Cc1ccccc1`, with 0.883%. Then `O=C(Cc1ccccc1)N/N=C/C=C/c1cccc([N+](=O)[O-])c1`, with -1.29%; and `COc1ccc(CCNCC(O)Cn2ccc3ccccc32)cc1OC` (centres unmarked), with -30.6%; and `N/C(CCCN1CCCCC1)=N/O`, with 12.4%. Take `O=C(CN(c1ccccn1)S(=O)(=O)c1ccc(F)cc1)Nc1ccccc1`: the “hERG current change (%, negative = inhibition) at 10uM” value was 7.79%. Next, `Cc1ccc2cc3cc(C(=O)NCCCN4CCCCCC4)oc3nc2c1`: -50.6%. Take `COC(=O)c1ccc(OC(C)C(=O)c2ccc(C)cc2)cc1` (centres unmarked): the “hERG current change (%, negative = inhibition) at 10uM” value was -21.5%. On to `Cc1cc(Oc2ccc(N)cn2)cc(C)c1Cl`, for which the “hERG current change (%, negative = inhibition) at 10uM” value was -8.95%.

For the compound `O=C(CN(C(=O)CNS(=O)(=O)c1ccc(F)cc1)c1ccc(F)cc1)NCc1ccco1`, the “hERG current change (%, negative = inhibition) at 10uM” value was found to be 2.45%. Next, `CCOC(=O)N1CCN(C(=O)COc2ccc(Cl)cc2)CC1`: -10.3%; `CCCCN(C(=O)c1ccc2c(c1)OCO2)c1c(N)n(CC(C)C)c(=O)[nH]c1=O`: -6.58%.

Regarding `O=C(O)COc1ccc(NC(=O)c2ccc3c(c2)C(=O)N(Cc2ccccc2)C3=O)cc1`, the “hERG current change (%, negative = inhibition) at 10uM” value is reported as 4.46%. Next, `CN(CC(=O)NC1CCCCCC1)S(=O)(=O)c1ccc(Br)cc1`: 9.13%; `CCOC(=O)N1CCN(Cc2c(F)cccc2F)CC1`: 18.5%; `CCOCCCN(CCC#N)C(=O)C1CCN(S(=O)(=O)c2ccc(-n3cnnn3)cc2)CC1`: -11.7%.

Take `N#CC(C#N)=CNc1cccnc1`: the “hERG current change (%, negative = inhibition) at 10uM” value is given as 5.48%. Next, `O=C(O)[C@@H]1CCCN(S(=O)(=O)c2cccc3cccnc23)C1`: 11.6%; `CSCCC(NC(=O)/C(=C/c1ccco1)NC(=O)c1ccc(Br)o1)C(=O)O` (centres unmarked): 5.43%. Consider `COc1ccccc1-n1c(=S)sc2c(=O)n(Cc3ccco3)c(SC)nc21`, for which the “hERG current change (%, negative = inhibition) at 10uM” value is on record as -4.31%.

As for `C[C@@H]1CN(C(=O)c2nc3ccc(Cl)cn3c2CN[C@H]2CCCCNC2=O)C[C@H](C)O1`, the “hERG current change (%, negative = inhibition) at 10uM” value was 11.4%. Next, `CCCCCCC1CCC(c2nc(-c3ccncc3)no2)CC1` (centres unmarked): 3.95%; `Cc1cc(SCCOc2ccccc2)nc(N)n1`: 3.41%. As to `O=C(NCC(=O)N1CCOCC1)c1ccc(Cl)cc1`, the “hERG current change (%, negative = inhibition) at 10uM” value is on record as -4.7%. As to `O=C1CC(C(=O)Nc2ccc(O)c(C(=O)O)c2)C(c2ccccc2)O1` (centres unmarked), the “hERG current change (%, negative = inhibition) at 10uM” value stood at 1.11%. Then `Cc1cccc(C)c1NC(=O)CN(C)C(=O)c1ccc(COc2ccccc2)cc1`, with -11.2%; and `Nc1nc(COc2ccc3ccccc3c2)cs1`, with -15.1%; and `O=C(COc1ccc2oc(-c3ccccc3)cc(=O)c2c1)NCc1ccco1`, with 14.7%. Then `O=C1CC2(CCCC2)C(=O)N1c1ccc(S(=O)(=O)NCC2CC2)cc1Cl`, with -0.753%. As to `O=C(CCS(=O)(=O)c1cccc2nonc12)N1CCOCC1`, the “hERG current change (%, negative = inhibition) at 10uM” value amounted to 14.6%. Then `Cc1cccc(N(C(=O)Cn2nnc3ccccc32)C(C(=O)NCc2ccco2)c2ccncc2)c1C` (centres unmarked), with -6.22%; and `O=C(Nc1ccc(Cl)c(S(=O)(=O)N2CCOCC2)c1)c1cc(-c2ccccn2)nc2ccccc12`, with -32.7%. Take `COc1ccc(OCc2cccc(C(=O)Nc3ccc(CN4CCCCC4)cc3)c2)cc1`: the “hERG current change (%, negative = inhibition) at 10uM” value is -72.8%.

Take `Cl.FC(F)(F)c1ccc(CN2CCNCC2)cc1`: the “hERG current change (%, negative = inhibition) at 10uM” value is reported as 0.155%. Next, `CCOCCCN1C(=O)CN(C2CCCCCC2)C(=O)C1c1ccc(OC)cc1` (centres unmarked): -9.01%; `COC(=O)c1cc(C(=O)OC)n(Cc2ccc(Br)cc2)n1`: -40.6%.

In the case of `Cc1noc(NS(=O)(=O)c2ccc(N/C=C/C(=O)c3cccnc3)cc2)c1C`, the “hERG current change (%, negative = inhibition) at 10uM” value is given as -0.605%. With `CCOC(=O)c1c(C(C)(C)C)oc2ccc(O)cc12`, the “hERG current change (%, negative = inhibition) at 10uM” value turned out to be 1.69%.

Regarding `Cc1cc(C)c(S(=O)(=O)NC2CC3CCC2C3)c(C)c1` (centres unmarked), the “hERG current change (%, negative = inhibition) at 10uM” value is listed as -8.7%. Turning to `Cc1cc(NC(=O)CSc2nc3cc(C)c(C)cc3cc2C)no1`, the “hERG current change (%, negative = inhibition) at 10uM” value turned out to be 14.5%. Take `COc1ccc(S(=O)(=O)N2CCCC(C(=O)N3CCOCC3)C2)cc1Cl` (centres unmarked): the “hERG current change (%, negative = inhibition) at 10uM” value is -14%. Consider `Cn1c2ccccc2c2cnn(CC(=O)N3CCC4(CC3)OCCO4)c(=O)c21`, for which the “hERG current change (%, negative = inhibition) at 10uM” value is recorded as -22.2%. As for `CCCN(CCO)Cc1ccc(Cl)c(Cl)c1`, the “hERG current change (%, negative = inhibition) at 10uM” value is given as -12.9%. Then `Cc1cccc(OCCCC(=O)NC(C)C)c1`, with -2.02%; and `CC(=O)N1CCC2(CC1)C/C(=N\NC(=S)Nc1ccccc1C)c1cc(O)ccc1O2`, with -61.1%; and `Brc1ccc(-c2nn3c(-c4ccccn4)nnc3s2)o1`, with -19.4%. With `O=c1[nH]c2c(c3c1CCCC3)CCCC2`, the “hERG current change (%, negative = inhibition) at 10uM” value is on record as 7.88%. Next, `Cc1cc(C)cc(NC(=O)NN2C(C)CCCC2C)c1` (centres unmarked): -14.3%.

As for `Cc1csc(N/N=C/c2ccc(O)c([N+](=O)[O-])c2)n1`, the “hERG current change (%, negative = inhibition) at 10uM” value was -19.1%. Then `C[C@H](Cc1ccccc1)Nc1ncnc2c1ncn2[C@@H]1O[C@H](CO)[C@@H](O)[C@H]1O`, with 14.9%; and `CN1C(=O)C(=Cc2coc3ccccc3c2=O)C(=O)N(C)C1=O`, with 2.32%.

Turning to `COc1ccc2c(c1OC)C(=O)N1N=C(c3ccc(-c4ccccc4)cc3)CC21` (centres unmarked), the “hERG current change (%, negative = inhibition) at 10uM” value is reported as 4.68%. As for `Cl.NCCc1nnc(SCc2ccccc2Cl)o1`, the “hERG current change (%, negative = inhibition) at 10uM” value worked out at 20.3%. Next, `N#CC1=C(N)Oc2cc(N)ccc2C1c1cccnc1` (centres unmarked): -3.76%; `O=C(NNC(=O)C1CCN(Cc2ccc(F)cc2Cl)CC1)Nc1ccc([N+](=O)[O-])cc1`: -26.4%; `O=C(CNC(=O)c1ccc(Br)cc1)NCc1cccnc1`: 2.22%. Next, `CCOC(=O)C1CCCN(C(=O)c2cccc(S(=O)(=O)N(C)c3c(C)n(C)n(-c4ccccc4)c3=O)c2)C1` (centres unmarked): -19.7%; `O=C(c1ccco1)N1CCN(C(=O)c2cnn(-c3cccc(F)c3)c2C2CCNCC2)CC1`: 18.7%; `COc1ccccc1/C=C/c1ccc2cccc(O)c2n1`: 11.2%.

Turning to `COc1cccc(-n2nc(C(=O)N3CCN(Cc4ccccc4)CC3)c3ccccc3c2=O)c1`, the “hERG current change (%, negative = inhibition) at 10uM” value was -50.3%. With `COc1ccc(CCNC(=O)C2CCN(C(=O)c3ccccc3C)CC2)cc1`, the “hERG current change (%, negative = inhibition) at 10uM” value is reported as 22.3%.

With `CCO[C@H]1OC(C(=O)N2CCN(Cc3ccc4c(c3)OCO4)CC2)=C[C@@H](c2ccccc2)[C@@H]1CCCO`, the “hERG current change (%, negative = inhibition) at 10uM” value is -17.3%. Next, `O=C(NCCCN1CCOCC1)c1cc(-c2ccc(Br)cc2)on1`: -58.6%; `COc1ccccc1S(=O)(=O)Cc1ccc(C(=O)NCc2ccccc2)o1`: -3.37%.

For the origin of these results see PMC4336329 (PLoS ONE, 2015).
